Laboratory results published in article PMC9637814.
These are yes or no findings as the source states them, for the method shown. Binding seen in cells or lysates may run through a third protein. Some results given as binding are weak or reduced against the parent protein; the word gives no strength.

The chains behind the UniProt entries cited, without tags or fusion partners.
UniProt P14618: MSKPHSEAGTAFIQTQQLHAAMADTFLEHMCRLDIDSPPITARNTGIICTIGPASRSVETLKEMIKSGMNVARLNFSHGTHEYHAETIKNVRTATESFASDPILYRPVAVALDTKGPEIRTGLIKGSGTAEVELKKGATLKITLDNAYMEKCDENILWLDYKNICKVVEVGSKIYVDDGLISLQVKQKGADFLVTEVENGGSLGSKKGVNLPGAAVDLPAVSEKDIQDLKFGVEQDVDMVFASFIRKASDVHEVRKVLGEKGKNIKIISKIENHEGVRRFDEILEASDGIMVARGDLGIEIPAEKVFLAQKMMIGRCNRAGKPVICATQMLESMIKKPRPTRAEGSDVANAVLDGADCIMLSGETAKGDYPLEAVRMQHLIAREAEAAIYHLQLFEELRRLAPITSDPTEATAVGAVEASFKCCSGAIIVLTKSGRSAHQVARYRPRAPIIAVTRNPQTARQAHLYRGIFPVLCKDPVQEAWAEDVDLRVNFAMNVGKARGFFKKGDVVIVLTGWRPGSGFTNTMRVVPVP

Target: pyruvate kinase M2 (PKM2) (human (endogenous in H1299)) (UniProt P14618)
Assay: co-IP; endogenous proteins in H1299 cell extracts, precipitated with Aurora A or PKM2 antibody, immunoblot

binding: binds
B1: Aurora A (protein, UniProt O14965 1-403)
chain: MDRSKENCISGPVKATAPVGGPKRVLVTQQFPCQNPLPVNSGQAQRVLCPSNSSQRIPLQAQKLVSSHKPVQNQKQKQLQATSVPHPVSRPLNNTQKSKQPLPSAPENNPEEELASKQKNEESKKRQWALEDFEIGRPLGKGKFGNVYLAREKQSKFILALKVLFKAQLEKAGVEHQLRREVEIQSHLRHPNILRLYGYFHDATRVYLILEYAPLGTVYRELQKLSKFDEQRTATYITELANALSYCHSKRVIHRDIKPENLLLGSAGELKIADFGWSVHAPSSRRTTLCGTLDYLPPEMIEGRMHDEKVDLWSLGVLCYEFLVGKPPFEANTYQETYKRISRVEFTFPDFVTEGARDLISRLLKHNPSQRPMLREVLEHPWITANSSKPSNCQNKESASKQS
